Experimental findings from the supplement of paper PMC3722116 are described below.

Compound in experiment [1]: T1, CCN(CC)CCCC(C)Nc1ccnc2cc(Cl)ccc12 [chloroquine]
How it is done: (§1)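 Hypoxanthine uptake by fresh isolates, duplicate serial dilutions, 24 h of drug plus 18 h after the label; sigmoid fit per isolate.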

Compound in experiment [2]: T2, OC(c1cc(C(F)(F)F)nc2c(C(F)(F)F)cccc12)C1CCCCN1 [mefloquine]
How it is done: as §1

Compound in experiment [3]: T1, chloroquine
The experiment in a line: slope of the dose-response curve (dimensionless); higher = steeper concentration-effect curve. How it is done:
as §1

Compound in experiment [4]: T2, mefloquine
Described as above. The procedure: as §1

Compound in experiment [5]: T3, C[C@H]1[C@H](OC(=O)CCC(=O)O)O[C@@H]2O[C@@]3(C)CC[C@H]4[C@H](C)CC[C@@H]1[C@@]24OO3 [artesunate]
How it is done: as §1

Compound in experiment [6]: T3, artesunate
The experiment in a line: slope of the dose-response curve (dimensionless); higher = steeper concentration-effect curve. How it is done:
as §1

Growth of fresh clinical P. falciparum isolates by hypoxanthine uptake over 42 h; for most isolates 1.6-1,647 nM mefloquine, 0.044-87 nM artesunate, 10-10,256 nM chloroquine, 2.4-236 nM lumefantrine. EC50, lower = more sensitive; slope from the same fit, higher = steeper. No active / inactive call. Fits with a coefficient of variation above 100% are not listed here; 15-28% of fits exceed 15%. Isolates are numbered anew.

Consider “Plasmodium falciparum isolate 302 (pfmdr1 allele: 86N, 1042N, pfmdr1 copies: 2)”, for which the “EC50 of parasite growth” value stood at 0.0891 µg/mL with chloroquine [1] and 0.124 µg/mL with mefloquine [2]. For the same test system, the results for the slope with chloroquine [3] and with mefloquine [4] were 4.94 and 9.99, respectively.
With “Plasmodium falciparum isolate 211 (pfmdr1 allele: 86N, 1042N, pfmdr1 copies: 2)”, the “EC50 of parasite growth” value with chloroquine [1] turned out to be 0.112 µg/mL. Besides, the slope in the experiment with chloroquine [3] was 4.11.
Regarding “Plasmodium falciparum isolate 62 (pfmdr1 allele: 1042D, pfmdr1 copies: 1)”, the “EC50 of parasite growth” value turned out to be 0.00477 µg/mL with artesunate [5] and 0.0615 µg/mL in the experiment with mefloquine [2]. Besides, the slope with artesunate [6] was determined as 6.16; in the experiment with mefloquine [4], 1.37.
The like results for “Plasmodium falciparum isolate 166 (pfmdr1 allele: 86N, 1042N, pfmdr1 copies: 1)” were, in that order, 0.000297 µg/mL, 0.00333 µg/mL, 3.53 and 3.09.
For “Plasmodium falciparum isolate 185 (pfmdr1 allele: 86N, 1042N, pfmdr1 copies: 1)”, in that order: 0.00264 µg/mL, 0.0483 µg/mL, 9.15 and 2.19.
“Plasmodium falciparum isolate 114 (pfmdr1 allele: 86N, 1042N, pfmdr1 copies: 2)”: the “EC50 of parasite growth” value with chloroquine [1] was 0.122 µg/mL; with mefloquine [2], 0.0591 µg/mL. Moreover, the slope in the experiment with chloroquine [3] worked out at 3.21; in the experiment with mefloquine [4], 2.64.
As for “Plasmodium falciparum isolate 419 (pfmdr1 allele: 86N, 1042N, pfmdr1 copies: 2)”, the “EC50 of parasite growth” value stood at 0.0955 µg/mL in the experiment with chloroquine [1] and 0.0687 µg/mL with mefloquine [2]. In addition, the slope turned out to be 7.33 in the experiment with chloroquine [3] and 3.29 with mefloquine [4].
“Plasmodium falciparum isolate 368 (pfmdr1 allele: 1042D, pfmdr1 copies: 1)”: the entries for the “EC50 of parasite growth” value in the experiment with artesunate [5] and in the experiment with mefloquine [2] were 0.000427 µg/mL and 0.0025 µg/mL, respectively. The slope with artesunate [6] turned out to be 3.88; with mefloquine [4] it was 3.69.
The like results for “Plasmodium falciparum isolate 273 (pfmdr1 allele: 86N, 1042N, pfmdr1 copies: 2)” were, in that order, 0.00106 µg/mL, 0.0463 µg/mL, 9.79 and 2.22.
The like results for “Plasmodium falciparum isolate 28 (pfmdr1 allele: 86N, 1042N, pfmdr1 copies: 5)” were, in that order, 0.0037 µg/mL, 0.141 µg/mL, 6.85 and 6.27.
As to “Plasmodium falciparum isolate 10 (pfmdr1 allele: 86N, 1042N, pfmdr1 copies: 3)”, the results for the “EC50 of parasite growth” value with chloroquine [1] and in the experiment with mefloquine [2] were 0.0355 µg/mL and 0.0539 µg/mL, respectively. Besides, the values for the slope with chloroquine [3] and with mefloquine [4] were 1.69 and 1.79, respectively.
Consider “Plasmodium falciparum isolate 163 (pfmdr1 allele: 86N, 1042N, pfmdr1 copies: 1)”, for which the “EC50 of parasite growth” value with artesunate [5] was found to be 0.000623 µg/mL; with mefloquine [2], 0.0128 µg/mL. For the same test system, the results for the slope with artesunate [6] and with mefloquine [4] were 3.34 and 2.75, respectively.
As for “Plasmodium falciparum isolate 204 (pfmdr1 allele: 86N, 1042N, pfmdr1 copies: 2)”, the figures for the “EC50 of parasite growth” value with artesunate [5] and with mefloquine [2] were 0.00365 µg/mL and 0.117 µg/mL, respectively. Further, the slope with artesunate [6] amounted to 10; with mefloquine [4], 5.24.
“Plasmodium falciparum isolate 444 (pfmdr1 allele: 86N, 1042N, pfmdr1 copies: 1)”: the “EC50 of parasite growth” value amounted to 0.116 µg/mL in the experiment with chloroquine [1] and 0.0705 µg/mL with mefloquine [2]. Further, the values for the slope in the experiment with chloroquine [3] and with mefloquine [4] were 1.95 and 8.4, respectively.
As for “Plasmodium falciparum isolate 19 (pfmdr1 allele: 86N, 1042N, pfmdr1 copies: 2)”, the “EC50 of parasite growth” value came to 0.14 µg/mL in the experiment with chloroquine [1] and 0.0716 µg/mL with mefloquine [2]. In addition, the slope with chloroquine [3] was determined as 2.87; in the experiment with mefloquine [4], 4.88.
“Plasmodium falciparum isolate 355 (pfmdr1 allele: 86N, 1042N, pfmdr1 copies: 2)”: the “EC50 of parasite growth” value with chloroquine [1] amounted to 0.266 µg/mL. Moreover, in the experiment with chloroquine [3], the slope stood at 4.26.
“Plasmodium falciparum isolate 153 (pfmdr1 allele: 86N, 1042N, pfmdr1 copies: 2)”: the “EC50 of parasite growth” value stood at 0.00263 µg/mL in the experiment with artesunate [5] and 0.0737 µg/mL with mefloquine [2]. The slope in the experiment with artesunate [6] stood at 9.58; in the experiment with mefloquine [4], 7.25.
For “Plasmodium falciparum isolate 102 (pfmdr1 allele: 86N, 1042N, pfmdr1 copies: 2)”, in that order: 0.000448 µg/mL, 0.00567 µg/mL, 2.03 and 1.17.
For “Plasmodium falciparum isolate 93 (pfmdr1 allele: 86N, 1042N, pfmdr1 copies: 1)”, in that order: 0.000345 µg/mL, 0.00389 µg/mL, 4.03 and 1.67.
In the case of “Plasmodium falciparum isolate 65 (pfmdr1 allele: 86N, 1042N, pfmdr1 copies: 2)”, the “EC50 of parasite growth” value with chloroquine [1] is 0.0418 µg/mL. Also, in the experiment with chloroquine [3], the slope was determined as 2.32.
As for “Plasmodium falciparum isolate 30 (pfmdr1 allele: 86N, 1042N, pfmdr1 copies: 1)”, the “EC50 of parasite growth” value in the experiment with artesunate [5] worked out at 0.00132 µg/mL; with mefloquine [2], 0.0323 µg/mL. For the same test system, the slope with artesunate [6] was found to be 4.23; in the experiment with mefloquine [4], 3.74.
With “Plasmodium falciparum isolate 107 (pfmdr1 allele: 86N, 1042N, pfmdr1 copies: 3)”, in the experiment with chloroquine [1], the “EC50 of parasite growth” value worked out at 0.141 µg/mL. For the same test system, the slope with chloroquine [3] worked out at 6.65.
On to “Plasmodium falciparum isolate 411 (pfmdr1 allele: 86N, 1042N, pfmdr1 copies: 1)”, for which the “EC50 of parasite growth” value worked out at 0.0524 µg/mL with chloroquine [1] and 0.0107 µg/mL with mefloquine [2]. The slope in the experiment with chloroquine [3] stood at 2.43; with mefloquine [4], 5.2.
Regarding “Plasmodium falciparum isolate 187 (pfmdr1 allele: 86N, 1042N, pfmdr1 copies: 1)”, the “EC50 of parasite growth” value with artesunate [5] is 0.000349 µg/mL; with mefloquine [2], 0.00827 µg/mL. The results for the slope with artesunate [6] and with mefloquine [4] were 6.06 and 1.38, respectively.
For the test system “Plasmodium falciparum isolate 140 (pfmdr1 allele: 86N, 1042N, pfmdr1 copies: 1)”, the “EC50 of parasite growth” value was found to be 0.000578 µg/mL with artesunate [5] and 0.0184 µg/mL in the experiment with mefloquine [2]. In addition, the slope with artesunate [6] was 2.62; in the experiment with mefloquine [4], 1.85.
In the case of “Plasmodium falciparum isolate 288 (pfmdr1 allele: 1042D, pfmdr1 copies: 1)”, the “EC50 of parasite growth” value worked out at 0.0103 µg/mL with artesunate [5] and 0.0327 µg/mL with mefloquine [2]. Moreover, the slope stood at 4.81 in the experiment with artesunate [6] and 2.41 with mefloquine [4].
As for “Plasmodium falciparum isolate 383 (pfmdr1 allele: 86N, 1042N, pfmdr1 copies: 1)”, the “EC50 of parasite growth” value in the experiment with artesunate [5] was found to be 0.000292 µg/mL; with mefloquine [2], 0.0201 µg/mL. For the same test system, the slope with artesunate [6] amounted to 6.29; with mefloquine [4], 3.44.
For “Plasmodium falciparum isolate 356 (pfmdr1 allele: 86N, 1042N, pfmdr1 copies: 3)”, in that order: 0.00196 µg/mL, 0.00874 µg/mL, 9.98 and 0.837.
Take “Plasmodium falciparum isolate 289 (pfmdr1 allele: 1042D, pfmdr1 copies: 1)”: the “EC50 of parasite growth” value was 0.000401 µg/mL in the experiment with artesunate [5] and 0.00237 µg/mL with mefloquine [2]. In addition, the slope with artesunate [6] is 2.9; in the experiment with mefloquine [4] it was 1.25.
On to “Plasmodium falciparum isolate 261 (pfmdr1 allele: 86N, 1042N, pfmdr1 copies: 2)”, for which the “EC50 of parasite growth” value with artesunate [5] turned out to be 0.00511 µg/mL; in the experiment with mefloquine [2] it was 0.0633 µg/mL. Besides, the slope with artesunate [6] turned out to be 7.53; with mefloquine [4], 9.98.
As for “Plasmodium falciparum isolate 283 (pfmdr1 allele: 86N, 1042N, pfmdr1 copies: 5)”, the “EC50 of parasite growth” value with chloroquine [1] came out at 0.12 µg/mL. Further, in the experiment with chloroquine [3], the slope was 2.24.
Take “Plasmodium falciparum isolate 134 (pfmdr1 allele: 86N, 1042N, pfmdr1 copies: 2)”: the “EC50 of parasite growth” value is 0.00186 µg/mL in the experiment with artesunate [5] and 0.063 µg/mL in the experiment with mefloquine [2]. Also, the slope with artesunate [6] was 4.29; with mefloquine [4] it was 1.87.
“Plasmodium falciparum isolate 449 (pfmdr1 allele: 86N, 1042N, pfmdr1 copies: 2)”: the “EC50 of parasite growth” value with chloroquine [1] was 0.193 µg/mL. For the same test system, the slope in the experiment with chloroquine [3] stood at 2.89.
Take “Plasmodium falciparum isolate 154 (pfmdr1 allele: 86N, 1042N, pfmdr1 copies: 1)”: the figures for the “EC50 of parasite growth” value with artesunate [5] and with mefloquine [2] were 0.00131 µg/mL and 0.021 µg/mL, respectively. Further, the slope is 9.72 with artesunate [6] and 2.91 with mefloquine [4].
Turning to “Plasmodium falciparum isolate 118 (pfmdr1 allele: 86N, 1042N, pfmdr1 copies: 3)”, the “EC50 of parasite growth” value with chloroquine [1] turned out to be 0.357 µg/mL. In addition, the slope in the experiment with chloroquine [3] came out at 9.9.
On to “Plasmodium falciparum isolate 21 (pfmdr1 allele: 86N, 1042N, pfmdr1 copies: 2)”, for which the “EC50 of parasite growth” value was found to be 0.0013 µg/mL with artesunate [5] and 0.0704 µg/mL with mefloquine [2]. For the same test system, the slope came out at 7.94 with artesunate [6] and 1.43 with mefloquine [4].
For “Plasmodium falciparum isolate 479 (pfmdr1 allele: 86N, 1042N, pfmdr1 copies: 1)”, in that order: 0.000552 µg/mL, 0.0134 µg/mL, 4.95 and 2.8.
For “Plasmodium falciparum isolate 130 (pfmdr1 allele: 86N, 1042N, pfmdr1 copies: 3)”, in that order: 0.000545 µg/mL, 0.00551 µg/mL, 5.08 and 1.76.
For “Plasmodium falciparum isolate 92 (pfmdr1 allele: 86N, 1042N, pfmdr1 copies: 1)”, in the experiment with chloroquine [1], the “EC50 of parasite growth” value was determined as 0.184 µg/mL. The slope with chloroquine [3] was 3.46.
For the test system “Plasmodium falciparum isolate 243 (pfmdr1 allele: 86N, 1042N, pfmdr1 copies: 2)”, the “EC50 of parasite growth” value in the experiment with chloroquine [1] was determined as 0.0437 µg/mL. Moreover, the slope in the experiment with chloroquine [3] amounted to 0.914.
With “Plasmodium falciparum isolate 33 (pfmdr1 allele: 86Y, pfmdr1 copies: 1)”, the “EC50 of parasite growth” value with artesunate [5] came to 0.00107 µg/mL; in the experiment with mefloquine [2], 0.00637 µg/mL. In addition, the slope with artesunate [6] is 8.59; with mefloquine [4], 2.63.
As for “Plasmodium falciparum isolate 167 (pfmdr1 allele: 86Y, pfmdr1 copies: 1)”, the “EC50 of parasite growth” value with artesunate [5] stood at 0.00168 µg/mL; with mefloquine [2], 0.00443 µg/mL. Also, the values for the slope in the experiment with artesunate [6] and with mefloquine [4] were 15.1 and 1.59, respectively.
